Reference: PubChem BioAssay AID504845 (National Center for Advancing Translational Sciences (NCATS), 2011)
About 150 (0.038%) of roughly 390,000 compounds were called active. The inconclusive results got no clear call from the source; some entries with a clear call stand among them for comparison. Calls come from the whole dose curve; as a rule, active = well fitted inhibition curve with a large enough effect; inconclusive = small, poorly fitted or top-dose-only effect; inactive = no such curve, though single readings can be large or run the other way. Potencies beside an inconclusive call are fits to weak or partial responses and may not hold up.

target: Regulator of G-protein signaling 4 (Homo sapiens) (UniProt P49798); test: Inhibitors of Regulator of G Protein Signaling (RGS) 4: qHTS; settings: Transcreener GDP fluorescence polarization, RGS4-accelerated GTP hydrolysis; series mostly up to 114 µM; activity change, negative = inhibition: at the top concentration; note: nearly all actives have a fitted effect of over 75% in size
Outline: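 MLSMR compounds (23 nl, pin-transferred) preincubated 10 min at room temperature with a 500nM (2x) first reagent, then RGS4 at 900nM (2x) plus Transcreener GDP mix added; fluorescence polarization (620/688 nm) read before and after 90 min at 30 °C.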
% is set by controls: 0 for no effect and ±100 for the full control effect; potency is the fitted concentration of half-maximal effect; tags give direction and shape of the fitted curve.

Chain of UniProt P49798 (P49798 whole entry, looked up): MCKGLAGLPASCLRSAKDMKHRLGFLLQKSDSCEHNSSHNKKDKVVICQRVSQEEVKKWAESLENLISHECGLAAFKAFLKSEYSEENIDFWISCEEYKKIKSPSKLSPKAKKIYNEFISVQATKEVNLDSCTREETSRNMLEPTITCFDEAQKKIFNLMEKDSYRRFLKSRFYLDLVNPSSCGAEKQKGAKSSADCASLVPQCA

For `COc1ccccc1N1CCN(Cc2cc(OC)c3c(c2)OCO3)CC1`, which Potency is on record?
Its Potency is inconclusive: 100 µM [inhibitor, partial curve, poor fit].

How did the Potency turn out when `CCn1c(C)nc2cc(C(=O)N/N=C/c3ccc(N4CCOCC4)cc3)ccc21` was run?
The Potency was inconclusive: 44.7 µM [inhibitor, partial curve, poor fit].

How did the “activity change, negative = inhibition” value turn out when `COc1ccc(C(=O)On2c(-c3ccc(Br)cc3)nc3ccccc3c2=O)cc1` was run?
The value was inactive: -5.75%.

Which Potency does the source give for `O=C(O)COc1ccc(/C=N/NC(=O)c2ccc(-c3csc(Nc4ccc(Cl)cc4)n3)cc2)cc1` here?
The Potency was inconclusive: 25.1 µM [inhibitor, full curve, poor fit].

How did the “activity change, negative = inhibition” value turn out when `Cc1ccccc1NC(=O)CCc1c(C)nc2c(c1C)c(=O)n(C)c(=O)n2C` was run?
Its value is inactive: -0.626%.

With `CCOC(=O)C1C(=O)CC(C)(O)C(C(=O)OCC)C1c1ccc(N(CC)CC)cc1` (centres undefined) as the molecule, how does the Potency read?
The Potency was inconclusive: 89.1 µM [inhibitor, single point].

With `CN1C(=O)C(CC(=O)NC2CCCCC2)SC1=Nc1ccccc1` (centres undefined) as the molecule, how does the Potency read?
The Potency was inconclusive: 44.7 µM [inhibitor, partial curve, poor fit].

For `CCn1cc(/C=C/c2cc[n+](C)cc2)c2ccccc21`, which Potency is on record?
The Potency was inconclusive: 79.4 µM [inhibitor, partial curve, poor fit].

`Cc1cc(N=Cc2c(O)n(-c3ccc4c(c3)OCO4)c(=O)c3ccccc23)ccn1` was tested. Which Potency did it give?
Its Potency is inconclusive: 22.4 µM [inhibitor, full curve, poor fit].

How did the Potency turn out when `COc1ccccc1NS(=O)(=O)c1cc(NC(=O)c2ccc(NC(C)=O)cc2)ccc1N1CCOCC1` was run?
The Potency was inconclusive: 100 µM [inhibitor, partial curve, poor fit].

Which “activity change, negative = inhibition” value does the source give for `Cc1oc(-c2cccs2)nc1CS(=O)CC(=O)NCCc1ccccc1` (centres undefined) here?
Its value is inactive: -18.3%.

For `CCC(=O)OCCNc1cc(Sc2nc3ccccc3[nH]2)c2nonc2c1[N+](=O)[O-]`, which Potency is on record?
Its Potency is inconclusive: 28.2 µM [inhibitor, full curve, poor fit].

How did the “activity change, negative = inhibition” value turn out when `CC(=O)c1cccc(NC(=O)CN2C(=O)CN(C)C(=O)c3ccccc32)c1` was run?
Its value is inactive: 25%.

With `COC(=O)c1sccc1NC(=O)CN(C)NS(=O)(=O)c1ccc([N+](=O)[O-])cc1` as the molecule, how does the Potency read?
The Potency was inconclusive: 79.4 µM [inhibitor, single point].

How did the Potency turn out when `CCOC(=O)Cc1csc(NC(=O)/C=C\c2ccccc2Cl)n1` was run?
Its Potency is inconclusive: 50.1 µM [inhibitor, partial curve, poor fit].

`CCN1CCN(C(c2cccnc2)c2cc(Cl)c3cccnc3c2O)CC1` (centres undefined) was tested. Which Potency did it give?
Its Potency is inconclusive: 50.1 µM [inhibitor, single point].

How did the Potency turn out when `CCn1nnc2cc(C(=O)Nc3ccc(C(=O)OC(C)C)cc3)ccc21` was run?
Its Potency is inconclusive: 89.1 µM [inhibitor, single point].

`COc1ccc(CNS(=O)(=O)CCNCc2ccccc2OC)cc1` was tested. Which “activity change, negative = inhibition” value did it give?
The value was inactive: 0.524%.

With `Cc1ccc(NC(=O)c2cc(=O)n(Cc3ccccc3)c(=O)[nH]2)cc1C` as the molecule, how does the Potency read?
The Potency was inconclusive: 50.1 µM [inhibitor, partial curve, poor fit].

For `CCC1=NN2C(=N)/C(=C\c3ccc(SCc4ccco4)o3)C(=O)N=C2S1`, which Potency is on record?
The Potency was inconclusive: 39.8 µM [inhibitor, partial curve, poor fit].

For `O=C(NCc1ccccn1)c1ccc(Cn2c(=S)[nH]c3ccccc3c2=O)cc1`, which Potency is on record?
The Potency was inconclusive: 20 µM [inhibitor, full curve, poor fit].

How did the Potency turn out when `COc1ccc(NC(=O)C2CCCN2C(=O)NCc2ccccc2)cc1` (centres undefined) was run?
Its Potency is inconclusive: 35.5 µM [inhibitor, full curve, poor fit].

For `NNC(=O)c1sc2cc(C(F)(F)F)cnc2c1-c1cccnc1`, which Potency is on record?
Its Potency is inconclusive: 89.1 µM [inhibitor, single point].

Which Potency does the source give for `Cc1cc(C)cc(S(=O)(=O)c2cnc3ccccc3n2)c1` here?
Its Potency is inconclusive: 17.8 µM [inhibitor, full curve, poor fit].

Which “activity change, negative = inhibition” value does the source give for `Cn1nc([N+](=O)[O-])c(C(C#N)c2ccccn2)c(Cl)c1=O` (centres undefined) here?
Its value is inactive: -6.28%.

Which Potency does the source give for `Fc1ccc(NCc2n[nH]c(=S)n2Cc2ccccc2)cc1` here?
The Potency was inconclusive: 44.7 µM [inhibitor, partial curve, poor fit].

For `CCCNC(=O)c1c(NC(=O)c2ccccc2F)sc2c1CCCCC2`, which “activity change, negative = inhibition” value is on record?
Its value is inactive: 6.6%.

`Cc1cc(NS(=O)(=O)c2ccc(NC(=S)NC(=O)c3ccccc3)cc2)no1` was tested. Which Potency did it give?
Its Potency is inconclusive: 100 µM [inhibitor, single point].

`C=CCOc1ccccc1/C=c1\sc2nc(=O)c(C)nn2c1=O` was tested. Which Potency did it give?
Its Potency is inconclusive: 17.8 µM [inhibitor, full curve, poor fit].

Which Potency does the source give for `O=C1C(Cc2ccccc2)Nc2ncnc(N3CCOCC3)c2N1Cc1ccc(Cl)cc1` (centres undefined) here?
The Potency was inconclusive: 89.1 µM [inhibitor, partial curve, poor fit].

For `CN(C)c1ccc(/C=N/NC(=S)NCc2ccccc2)cc1`, which activity change, negative = inhibition is on record?
The activity change, negative = inhibition was inactive: -16.7% [at 11.4 µM].

With `COc1ccccc1NS(=O)(=O)c1cc(NC(=O)C2CCC2)ccc1N1CCCCC1` as the molecule, how does the Potency read?
The Potency was inconclusive: 112 µM [inhibitor, partial curve, poor fit].

`Nc1n[nH]c(=S)n1-c1ccc(Cl)cc1` was tested. Which Potency did it give?
The Potency was inconclusive: 50.1 µM [inhibitor, partial curve, poor fit].

Which Potency does the source give for `O=C(NC(=S)Nc1ccccc1C(=O)O)c1cncc(Br)c1` here?
Its Potency is inconclusive: 10 µM [inhibitor, full curve, poor fit].

`CSc1ccccc1NC(=O)CN(c1ccccc1)S(=O)(=O)N(C)C` was tested. Which “activity change, negative = inhibition” value did it give?
The value was inactive: 37.6%.

`O=c1[nH]c2cccc(Cl)c2n(CCNc2ncc(C(F)(F)F)cc2Cl)c1=O` was tested. Which Potency did it give?
The Potency was inconclusive: 89.1 µM [inhibitor, single point].

`CCOc1ccc(C2=C(C(=O)CC)Sc3nncn3N2C(=O)CC)cc1` was tested. Which “activity change, negative = inhibition” value did it give?
The value was inactive: -1.37%.

`N/N=C1\CCCc2c1[nH]c1ccc([N+](=O)[O-])cc21` was tested. Which Potency did it give?
Its Potency is inconclusive: 89.1 µM [inhibitor, single point].

Which “activity change, negative = inhibition” value does the source give for `Cc1ccccc1Cc1c(C)nc2c(C(=O)N3CCN(Cc4ccc5c(c4)OCO5)CC3)cnn2c1C` here?
Its value is inactive: 3.9%.

How did the Potency turn out when `CCOC(=O)c1ccc(CC(=O)c2ccc(O)c(O)c2O)o1` was run?
Its Potency is inconclusive: 89.1 µM [inhibitor, partial curve, poor fit].

Which Potency does the source give for `Clc1ccc(N=c2ssnc2Cl)cc1` here?
The Potency was inconclusive: 31.6 µM [inhibitor, partial curve, poor fit].

For `COc1ccc(S(=O)(=O)NC2CC2)cc1C(=O)N1CCOCC1`, which Potency is on record?
Its Potency is inconclusive: 50.1 µM [inhibitor, partial curve, poor fit].

How did the Potency turn out when `COc1cc(C2CC(=O)N3CN(Cc4ccccc4)CSC3=C2C#N)ccc1OCc1ccccc1` (centres undefined) was run?
The Potency was inconclusive: 35.5 µM [inhibitor, full curve, poor fit].

`C/C(=N\O)c1ccn(S(=O)(=O)c2ccc(Cl)cc2)c1` was tested. Which Potency did it give?
Its Potency is inconclusive: 89.1 µM [inhibitor, single point].

For `Cc1nnc(-c2cccc(Br)c2)c2cn(-c3cccc(Br)c3)nc12`, which Potency is on record?
The Potency was inconclusive: 50.1 µM [inhibitor, partial curve, poor fit].

How did the Potency turn out when `Cc1ccc(S(=O)(=O)N2CCN(C(=S)NCc3ccc4c(c3)OCO4)CC2)cc1` was run?
The Potency was inconclusive: 79.4 µM [inhibitor, partial curve, poor fit].

How did the “activity change, negative = inhibition” value turn out when `CC(/C=C/c1ccccc1)=N/O` was run?
The value was inactive: -14.6%.

With `CCOC(=O)C(C(=O)OCC)c1cc(Br)c2noc3c2c1C(=O)c1ccccc1-3` as the molecule, how does the Potency read?
Its Potency is inconclusive: 10 µM [inhibitor, full curve, poor fit].

With `CC1CCOC2(O1)C(=O)N(CN1CCN(c3ccccc3F)CC1)c1ccccc12` (centres undefined) as the molecule, how does the Potency read?
Its Potency is inconclusive: 100 µM [inhibitor, single point].

With `O=C(CCCSc1ccccc1)Nc1nc(-c2ccccn2)cs1` as the molecule, how does the Potency read?
Its Potency is inconclusive: 17.8 µM [inhibitor, full curve, poor fit].

With `CC(CN1CCCCC1)OC(=O)c1ccccc1Cl` (centres undefined) as the molecule, how does the Potency read?
The Potency was inconclusive: 79.4 µM [inhibitor, partial curve, poor fit].

How did the Potency turn out when `O=C(CCC(=O)c1cccs1)OCc1nnc(-c2ccccc2)o1` was run?
Its Potency is inconclusive: 79.4 µM [inhibitor, partial curve, poor fit].

`Cc1c(Cl)c([N+](=O)[O-])nn1CC(=O)N1CCCc2ccccc21` was tested. Which Potency did it give?
The Potency was inconclusive: 89.1 µM [inhibitor, single point].

For `CC(C)CCn1c(O)c(N=Nc2ccccn2)c2ccccc21`, which “activity change, negative = inhibition” value is on record?
The value was inactive: 4.51%.

How did the Potency turn out when `COc1ccccc1NC(c1cccnc1)c1ccc2cccnc2c1O` (centres undefined) was run?
The Potency was inconclusive: 50.1 µM [inhibitor, partial curve, poor fit].

`O=C1N[C@@H](Cc2ccccc2)COC(=O)[C@@H](Cc2ccc(F)cc2)C/C=C\C[C@@H]1CC(=O)N(CCO)Cc1ccccc1` was tested. Which “activity change, negative = inhibition” value did it give?
The value was inactive: 24.6%.

`O=C(c1ccccc1NS(=O)(=O)c1ccccc1)N1CCCCCC1` was tested. Which “activity change, negative = inhibition” value did it give?
The value was inactive: -10.2%.

Which Potency does the source give for `NC(=O)NC(=O)CSc1nnc(-c2ccco2)n1Cc1ccccc1` here?
The Potency was inconclusive: 56.2 µM [inhibitor, partial curve, poor fit].

How did the “activity change, negative = inhibition” value turn out when `CCc1c(C)c2ccc(OCC(=O)OC)cc2oc1=O` was run?
Its value is inactive: 15.9%.

Which “activity change, negative = inhibition” value does the source give for `CCOc1ccc2nc(NC(=O)c3ccoc3C)sc2c1` here?
Its value is inactive: -26%.

With `CN(CCC#N)C(=O)COC(=O)c1c2c(nc3ccccc13)/C(=C/c1ccco1)CC2` as the molecule, how does the Potency read?
The Potency was inconclusive: 44.7 µM [inhibitor, partial curve, poor fit].

Which Potency does the source give for `O=S(=O)(NN1CCOCC1)c1ccc(Br)s1` here?
The Potency was inconclusive: 79.4 µM [inhibitor, partial curve, poor fit].

`c1cc(-c2nsc(-c3ccncc3)n2)ccn1` was tested. Which Potency did it give?
Its Potency is inconclusive: 79.4 µM [inhibitor, partial curve, poor fit].

With `O=C(Cc1ccc(Cl)cc1)Nc1ccc2oc(=O)ccc2c1` as the molecule, how does the Potency read?
The Potency was inconclusive: 100 µM [inhibitor, single point].
